Source: patent publication US20150051171A1, “TETRAZOLINONE COMPOUNDS AND ITS USE AS PESTICIDES” (SUMITOMO CHEMICAL COMPANY, LIMITED, priority 2012, published 2015)

How the values were obtained:
Test in all cases: whole plant or invertebrate
[1] = test system: cabbage moth (Plutella xylostella); conditions: 120 h, read-out: mortality of insects
Description: The testing drug solutions to be used in this Test example were prepared by diluting the formulations prepared according to the above-mentioned Formulation examples with an ion-exchange water so that the active ingredient concentration was set to 500 ppm. Cabbage (green ball) was planted in a polyethylene cup and was grown until the third true leaf or the fourth true leaf was developed. To the cabbage (Brassicae oleracea) was spread the above-mentioned testing solutions in a ratio of 20 mL/cup. After the drug solutions were dried, to a polyethylene cup (diameter 5.5 cm) covered with a filter paper on the bottom, the cabbage cut out from the root was installed and five heads of cabbage moth (Plutella xylostella) at the three instar larval stages were released into the cup and the cup was covered with the lid. The cup was held at 25° C. and after 5 days, the number of the surviving insects was counted and the mortality of insects was calculated by the following equation.
(§1) Mortality of insects(%)=(Number of dead insects/Number of tested insects)×100

[2] = test system: common house mosquito (Culex pipiens pallens); conditions: 192 h, read-out: mortality of insects
Description: The testing drug solutions to be used in this Test example were prepared by diluting the formulations prepared according to the above-mentioned Formulation examples with an ion-exchange water so that the active ingredient concentration was set to 500 ppm. The above-mentioned drug solutions 0.7 mL were added to an ion-exchange water 100 mL so that the active ingredient concentration was set to 3.5 ppm. Twenty (20) last instar larvae of common house mosquito (Culex pipiens pallens) were released into the solutions and after 8 day, the number of the dead insects was counted.
The mortality of insects was calculated by the following equation.
as §1

[3] = test system: German cockroach (Blattella germanica); conditions: 144 h, read-out: mortality of insects
Description: The testing drug solutions to be used in this Test example were prepared by diluting the formulations prepared according to the above-mentioned Formulation examples with an ion-exchange water so that the active ingredient concentration was set to 500 ppm.
A bottom of a polyethylene cup having 5.5 cm of diameter was lain with filter paper with the same size as the bottom and thereto was added dropwise the above-mentioned testing solutions 0.7 mL onto the filter paper and sucrose 30 mg as feed was placed uniformly thereon. Two (2) heads of male German cockroach (Blattella germanica) were released into the polyethylene cup and the cup was covered with the lid. After 6 days, the life and death of the insects of the German cockroach was observed.

Molecule `COc1ccccc1-n1ccc(OCc2c(Cl)cccc2-n2nnn(C)c2=O)n1` [Present compound 86, 1-(2-{[1-(2-methoxyphenyl)-1H-pyrazole-3-yl]oxymethyl}-3-chlorophenyl)-4-methyl-1,4-dihydrotetrazole-5-one] has a mortality at 500 ppm [1] of 80% and a mortality at 3.5 ppm [2] of 100%.

With `Cc1ccccc1-n1ccc(OCc2c(C)cccc2-n2nnn(C)c2=O)n1` [Present compound 77, 1-(2-{[1-(2-methylphenyl)-1H-pyrazole-3-yl]oxymethyl}-3-methylphenyl)-4-methyl-1,4-dihydrotetrazole-5-one] the mortality at 500 ppm [3] was 100%.

`COc1ccccc1-n1ccc(OCc2c(C3CC3)cccc2-n2nnn(C)c2=O)n1` [Present compound 89, 1-(2-{[1-(2-methoxyphenyl)-1H-pyrazole-3-yl]oxymethyl}-3-cyclopropylphenyl)-4-methyl-1,4-dihydrotetrazole-5-one] showed a mortality at 500 ppm [1] of 80%.

`CCCCc1cccc(-n2nnn(C)c2=O)c1COc1ccn(-c2ccc(Cl)cc2)n1` [Present compound 38, 1-(2-{[1-(4-chlorophenyl)-1H-pyrazole-3-yl]oxymethyl}-3-butylphenyl)-4-methyl-1,4-dihydrotetrazole-5-one] gave a mortality at 3.5 ppm [2] of 100%.

In the case of `Cc1cccc(-n2nnn(C)c2=O)c1COc1ccn(-c2c(F)c(F)c(F)c(F)c2F)n1` [Present compound 64, 1-(2-{[1-(2,3,4,5,6-pentafluorophenyl)-1H-pyrazole-3-yl]oxymethyl}-3-methylphenyl)-4-methyl-1,4-dihydrotetrazole-5-one], the mortality at 3.5 ppm [2] is reported as 100%.

For `COc1cccc(-n2nnn(C)c2=O)c1COc1ccn(-c2ccc(Br)cc2)n1` [Present compound 49, 1-(2-{[1-(4-bromophenyl)-1H-pyrazole-3-yl]oxymethyl}-3-methoxyphenyl)-4-methyl-1,4-dihydrotetrazole-5-one], the mortality at 500 ppm [1] was 80%.
